From the RNAGym collection of RNA variant scans (doi:10.7554/elife.90254)
Read counts are not given, so values of variants with three or more changes are uncertain.

B1: LINE1-mini (parent)
chain: GGCAGAGCUCAACACAGCGUGGCAAAGUGGCUGUGGCUAGACUGCC

Variants of: B1
Assay: self-cleavage, relative activity (ratio to wild type); higher = more cleavage; in vitro, sequencing; the parent is a self-cleaving ribozyme

Variant | self-cleavage
G5C U28C U32G | 0.02
G5U G7C G29A G30U | 0.2
G5C G7C A24U | 0.1
G5U C18G G21U | 0.03
G5U A24C C42U | 0.03
G5C G22C A24G G29U | 0.04
G5C G17A U32G G36U A41G | 0.01
G5C G19U U20G G27C | 0.03
G5U C23G G33U | 0.02
G5C G35C C46U | 0.05
G5C G7U A11G G17C C23U U32C | 0.05
G5C C13A A24U A39U C45G | 0.01
G5U A11C C18U C23A U38C A41U | 0
G5U A24G G36A C37A | 0.05
G5C G35A C42A | 0.01
G5U A24C A26G U43C | 0.05
G5U G7C C10A C23U | 0.03
G5C G33C U43C | 0.03
G5C C8A G17U A26C | 0.11
G5U C8U C15A G33U C46U | 0.42
G5C C15G G19A A25G | 0.04

Variant | self-cleavage
G5U C13A G40U C42G | 0.12
G5U C18U G44A | 0.05
G5C C15U C18G G33C G44C | 0.06
G5U C18A G22U G27U U32A | 0.03
G5C C23U A24U G29C A41C | 0.06
G5C A25G A26U | 0.08
G5C U9C C13U A26C C37U | 0.01
G5C C13G C42G | 0.11
G5C A12U A16G C37A | 0.11
G5U C8U C31A | 0.11
G5C U20C G21U C23U | 0.02
G5C C18A G27A | 0.04
G5C A14U U20G | 0.04
G5C G19C G35U | 0.02
G5U A24U C46A | 0.04
G5U A12C G35A A41C | 0.23
G5C U9G C10A | 0.01
G5C G21A A24U | 0.05
G5U A16U U28A C42U | 0.04
G5U G7A U34A | 0
G5C A24C G27C | 0.01

Variant | self-cleavage
G5C G19A U38A C42G | 0.23
G5U A12G G29U | 0.02
G5C G19A G40U C42G | 0.22
G5C C15A A16G C42A | 0.01
G5U C8G G36A | 0.42
G5C G21C C42A | 0.09
G5U G7U C37U G40C C42G | 0.2
G5U C15A G36A A39U C46A | 0.01
G5C A25G G27C | 0.13
G5U C13A G29U U38A | 0.1
G5U A14G G19U | 0.06
G5U A11G G19C G29A | 0.02
G5U A6U C18A | 0.1
G5C C8G G33C C37A U38G A41G | 0.01
G5U A11G C23G A24C A26G G44U | 0.01
G5C A16G C18A U32G | 0.02
G5U A24C G29U G33U | 0
G5C G27U G29A | 0.08
G5U A6G U32G C37U | 0.05
G5C G7A G44U C46G | 0.16
G5U C10U U43C | 0.19

Variant | self-cleavage
G5U A25G C46U | 0
G5U A6G C18U G33U | 0
G5U C8G G30U G35C | 0.02
G5U A16G A39C | 0.01
G5U C13U A14G G40A | 0.04
G5U A14U U32G C45G | 0.09
G5U C8G C18G | 0.07
G5U C18G G29C A39C | 0.07
G5C C8G C13U G17U G29U U32G A41U | 0.1
G5C C8A U9C G17C C23A | 0.04
G5C C8U A39G U43A | 0.02
G5C G30U C31U | 0.01
G5U A14G C15G G22A | 0.04
G5U C13G G30U U32G | 0.06
G5C G27U G30U G36U | 0.01
G5C A14U U38A | 0.16
G5C G35U C42U | 0.1
G5U A6C C8U G35U | 0.1
G5C C15G C18A G22C | 0.02
G5U A11U C15U A25G U28A C45A | 0.01
G5C C23A C37G | 0.02
